The supplement of paper PMC8728848
The list shows a part of the results.

Key:
Assay in all cases: glycan array binding signal (z-score within array); higher = stronger binding
Details in all cases: glycan notation: IUPAC condensed, linker removed
[1] = target: Gal(b1-4)GlcNAc(b1-3)Gal(b1-4)GlcNAc(b1-3)Gal(b1-4)GlcNAc(b1-2)Man(a1-3)[Gal(b1-4)GlcNAc(b1-3)Gal(b1-4)GlcNAc(b1-3)Gal(b1-4)GlcNAc(b1-2)Man(a1-6)]Man(b1-4)GlcNAc(b1-4)GlcNAc
Procedure, shortened: (§1)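 From the Consortium for Functional Glycomics database, 3228 arrays were curated, keeping only those whose protein sequence was available. Binding is given as a within-array Z-score averaged across arrays sharing a protein sequence and across linkers. Negative Z-scores can be read as non-binding.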

[2] = target: Gal(b1-4)GlcNAc(b1-3)Gal(b1-4)GlcNAc(b1-3)Gal(b1-4)GlcNAc(b1-2)Man(a1-3)[Gal(b1-4)GlcNAc(b1-3)Gal(b1-4)GlcNAc(b1-3)Gal(b1-4)GlcNAc(b1-2)Man(a1-6)]Man(b1-4)GlcNAc(b1-4)[Fuc(a1-6)]GlcNAc
Procedure, shortened: as §1

[3] = target: Gal(b1-4)GlcNAc(b1-3)Gal(b1-4)GlcNAc(b1-3)Gal(b1-4)GlcNAc(b1-2)[Gal(b1-4)GlcNAc(b1-3)Gal(b1-4)GlcNAc(b1-3)Gal(b1-4)GlcNAc(b1-6)]Man(a1-6)[Gal(b1-4)GlcNAc(b1-3)Gal(b1-4)GlcNAc(b1-3)Gal(b1-4)GlcNAc(b1-2)Man(a1-3)]Man(b1-4)GlcNAc(b1-4)[Fuc(a1-6)]GlcNAc
Procedure, shortened: as §1

[4] = target: Gal(b1-4)GlcNAc(b1-3)Gal(b1-4)GlcNAc(b1-3)Gal(b1-4)GlcNAc(b1-3)Gal(b1-4)GlcNAc(b1-2)Man(a1-3)[Gal(b1-4)GlcNAc(b1-3)Gal(b1-4)GlcNAc(b1-3)Gal(b1-4)GlcNAc(b1-3)Gal(b1-4)GlcNAc(b1-2)Man(a1-6)]Man(b1-4)GlcNAc(b1-4)GlcNAc
Procedure, shortened: as §1

[5] = target: Gal(b1-4)GlcNAc(b1-3)Gal(b1-4)GlcNAc(b1-3)Gal(b1-4)GlcNAc(b1-3)Gal(b1-4)GlcNAc(b1-2)Man(a1-3)[Gal(b1-4)GlcNAc(b1-3)Gal(b1-4)GlcNAc(b1-3)Gal(b1-4)GlcNAc(b1-3)Gal(b1-4)GlcNAc(b1-2)Man(a1-6)]Man(b1-4)GlcNAc(b1-4)[Fuc(a1-6)]GlcNAc
Procedure, shortened: as §1

[6] = target: Gal(b1-4)GlcNAc(b1-3)Gal(b1-4)GlcNAc(b1-3)Gal(b1-4)GlcNAc(b1-3)Gal(b1-4)GlcNAc(b1-2)[Gal(b1-4)GlcNAc(b1-3)Gal(b1-4)GlcNAc(b1-3)Gal(b1-4)GlcNAc(b1-3)Gal(b1-4)GlcNAc(b1-6)]Man(a1-6)[Gal(b1-4)GlcNAc(b1-3)Gal(b1-4)GlcNAc(b1-3)Gal(b1-4)GlcNAc(b1-3)Gal(b1-4)GlcNAc(b1-2)Man(a1-3)]Man(b1-4)GlcNAc(b1-4)[Fuc(a1-6)]GlcNAc
Procedure, shortened: as §1

[7] = target: Gal(b1-4)GlcNAc(b1-3)Gal(b1-4)GlcNAc(b1-3)Gal(b1-4)GlcNAc(b1-3)Gal(b1-4)GlcNAc(b1-3)Gal(b1-4)GlcNAc(b1-2)Man(a1-3)[Gal(b1-4)GlcNAc(b1-3)Gal(b1-4)GlcNAc(b1-3)Gal(b1-4)GlcNAc(b1-3)Gal(b1-4)GlcNAc(b1-3)Gal(b1-4)GlcNAc(b1-2)Man(a1-6)]Man(b1-4)GlcNAc(b1-4)GlcNAc
Procedure, shortened: as §1

[8] = target: Gal(b1-4)GlcNAc(b1-3)Gal(b1-4)GlcNAc(b1-3)Gal(b1-4)GlcNAc(b1-3)Gal(b1-4)GlcNAc(b1-3)Gal(b1-4)GlcNAc(b1-2)Man(a1-3)[Gal(b1-4)GlcNAc(b1-3)Gal(b1-4)GlcNAc(b1-3)Gal(b1-4)GlcNAc(b1-3)Gal(b1-4)GlcNAc(b1-3)Gal(b1-4)GlcNAc(b1-2)Man(a1-6)]Man(b1-4)GlcNAc(b1-4)[Fuc(a1-6)]GlcNAc
Procedure, shortened: as §1

[9] = target: Gal(b1-4)GlcNAc(b1-3)Gal(b1-4)GlcNAc(b1-3)Gal(b1-4)GlcNAc(b1-3)Gal(b1-4)GlcNAc(b1-3)Gal(b1-4)GlcNAc(b1-2)[Gal(b1-4)GlcNAc(b1-3)Gal(b1-4)GlcNAc(b1-3)Gal(b1-4)GlcNAc(b1-3)Gal(b1-4)GlcNAc(b1-3)Gal(b1-4)GlcNAc(b1-6)]Man(a1-6)[Gal(b1-4)GlcNAc(b1-3)Gal(b1-4)GlcNAc(b1-3)Gal(b1-4)GlcNAc(b1-3)Gal(b1-4)GlcNAc(b1-3)Gal(b1-4)GlcNAc(b1-2)Man(a1-3)]Man(b1-4)GlcNAc(b1-4)[Fuc(a1-6)]GlcNAc
Procedure, shortened: as §1

[10] = target: Gal(b1-4)GlcNAc(b1-3)Gal(b1-4)GlcNAc(b1-3)Gal(b1-4)GlcNAc(b1-3)Gal(b1-4)GlcNAc(b1-3)Gal(b1-4)GlcNAc(b1-3)Gal(b1-4)GlcNAc(b1-2)Man(a1-3)[Gal(b1-4)GlcNAc(b1-3)Gal(b1-4)GlcNAc(b1-3)Gal(b1-4)GlcNAc(b1-3)Gal(b1-4)GlcNAc(b1-3)Gal(b1-4)GlcNAc(b1-3)Gal(b1-4)GlcNAc(b1-2)Man(a1-6)]Man(b1-4)GlcNAc(b1-4)GlcNAc
Procedure, shortened: as §1

[11] = target: Gal(b1-4)GlcNAc(b1-3)Gal(b1-4)GlcNAc(b1-3)GalNAc
Procedure, shortened: as §1

[12] = target: Gal(b1-4)GlcNAc(b1-3)Gal(b1-4)GlcNAc(b1-3)[Gal(b1-4)GlcNAc(b1-3)Gal(b1-4)GlcNAc(b1-6)]GalNAc
Procedure, shortened: as §1

[13] = target: Gal(b1-4)GlcNAc(b1-3)Gal(b1-4)GlcNAc(b1-6)[Gal(b1-3)]GalNAc
Procedure, shortened: as §1

[14] = target: Gal(b1-4)GlcNAc(b1-3)Gal(b1-4)[Fuc(a1-3)]GlcNAc(b1-3)Gal(b1-4)[Fuc(a1-3)]GlcNAc
Procedure, shortened: as §1

[15] = target: Gal(b1-4)GlcNAc(b1-3)GalNAc
Procedure, shortened: as §1

[16] = target: Gal(b1-4)GlcNAc(b1-3)[Fuc(a1-3)GlcNAc(b1-6)]Gal(b1-4)Glc
Procedure, shortened: as §1

[17] = target: Gal(b1-4)GlcNAc(b1-3)[Gal(b1-4)GlcNAc(b1-6)]Gal(b1-4)GlcNAc
Procedure, shortened: as §1

[18] = target: Gal(b1-4)GlcNAc(b1-3)[GlcNAc(b1-6)]Gal(b1-4)GlcNAc
Procedure, shortened: as §1

[19] = target: Gal(b1-4)GlcNAc(b1-6)Gal(b1-4)GlcNAc
Procedure, shortened: as §1

B1: PX14343H-pdi-506-26-506 (Parabacteroides distasonis) (protein)
chain: QPTGTMTTDSKLTSKESALALTNSAYLKNTVFNKMTPGWGCNTILLLEYMTGKATSENSQSNYKDFQDLLVSDRSLYIEDWWQDCYAGIANCNLALQKLGEFENLDASLVNGYMAEVKFMRALYYFYLVRIFGDVPKITTVQSELGELQVSRAPVKEIYDEIIIPDLLEAEQSDLAFSDHTGRVSMGAVKALLADVYLTYAGYPLQGGKSYYAESAKRSLEVIKSNEYTLFTDYESLRLPSQNNKGEFIYQVQFSLNKRHNESVRIFLPSRSGISAYDLEYGSLIPTKEFVESFEKGDKRTEEKQYFFTNYKGHPSKFSPGAAELEFMDLNGYYIYKFFDQVAVDNTAKSDLNWSVYRYTDVLLMYAEAQVNADGTPNQQSIDIVNQIRGRAGLAPFKQTNASAFLEEVWDQRYFDLCYENKMWFDMLRTRKIRDDKSGEYVDFIGYKTNWGKVYTETQLLFPIPLSERQANPNLTQNQGY
**Q.** B1 was tested. Which “glycan array binding signal (z-score)” value [1] did it give?
**A.** Its value is 3.24.

**Q.** What about the “glycan array binding signal (z-score)” value [2] of the same binder?
**A.** The value was 6.72.

**Q.** What about the “glycan array binding signal (z-score)” value [3] of the same binder?
**A.** The value was 0.73.

**Q.** What about the “glycan array binding signal (z-score)” value [4] of the same binder?
**A.** Its value is 0.477.

**Q.** And the “glycan array binding signal (z-score)” value [5]?
**A.** Its value is 0.292.

**Q.** What about the “glycan array binding signal (z-score)” value [6] of the same binder?
**A.** The value was 0.883.

**Q.** What about the “glycan array binding signal (z-score)” value [7] of the same binder?
**A.** Its value is 0.552.

**Q.** And the “glycan array binding signal (z-score)” value [8]?
**A.** Its value is 0.244.

**Q.** And the “glycan array binding signal (z-score)” value [9]?
**A.** Its value is 0.888.

**Q.** What about the “glycan array binding signal (z-score)” value [10] of the same binder?
**A.** The value was 4.45.

**Q.** What about the “glycan array binding signal (z-score)” value [11] of the same binder?
**A.** Its value is 0.145.

**Q.** And the “glycan array binding signal (z-score)” value [12]?
**A.** Its value is 0.311.

**Q.** What about the “glycan array binding signal (z-score)” value [13] of the same binder?
**A.** Its value is -0.1.

**Q.** And the “glycan array binding signal (z-score)” value [14]?
**A.** Its value is -0.204.

**Q.** And the “glycan array binding signal (z-score)” value [15]?
**A.** The value was -0.441.

**Q.** And the “glycan array binding signal (z-score)” value [16]?
**A.** Its value is 0.029.

**Q.** And the “glycan array binding signal (z-score)” value [17]?
**A.** Its value is -0.216.

**Q.** And the “glycan array binding signal (z-score)” value [18]?
**A.** The value was -0.347.

**Q.** What about the “glycan array binding signal (z-score)” value [19] of the same binder?
**A.** Its value is -0.42.
